From the supplement of paper PMC10670038
Counter-ions that a name gives are not always drawn. ± gives the standard deviation of the averaged measurements. Whole data set: some 2,000 compounds, median “relative cell viability vs DMSO, compound + 0.2 uM CuET” near 1, cut for the lowest 2% near 0.25. Some of the results follow.

These molecules were tested on TE10 (assay: relative cell viability vs DMSO, compound + 0.2 uM CuET (fraction); TE10 is an esophageal squamous carcinoma line; higher = less cytotoxic). Settings: 2 µM; co-treatment: CuET (bis(diethyldithiocarbamate)copper) 0.2 uM; 48 h.
Description: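 TE10 ESCC cells (1,000/well, 384-well plates) were treated with Selleck bioactive library compounds at 2 uM combined with 0.2 uM CuET (copper diethyldithiocarbamate) for 48 h. Viability was read by CellTiter-Glo and expressed relative to DMSO wells. Two technical replicates (A, B).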

| SMILES | relative cell viability |
| --- | --- |
| Clc1ccc(Nc2nnc(Cc3ccncc3)c3ccccc23)cc1 [Vatalanib (PTK787) 2HCl] | 1.08 ± 0.044 |
| COC(=O)c1ccc2c(C(=Nc3ccc(N(C)C(=O)CN4CCN(C)CC4)cc3)c3ccccc3)c(O)[nH]c2c1 [Nintedanib (BIBF 1120)] | 1.08 ± 0.085 |
| CCOC(=O)[C@H](CCc1ccccc1)N[C@@H](C)C(=O)N1Cc2cc(OC)c(OC)cc2C[C@H]1C(=O)O [Moexipril HCl] | 1.05 ± 0.13 |
| O=c1[nH]cnc2[nH]ncc12 [Allopurinol Sodium] | 0.947 ± 0.016 |
| C[N+](C)(C)CCO.[Cl-] [Choline Chloride] | 1.17 ± 0.17 |
| CN1CCN(C2CCN(C(=O)Nc3cc(Oc4ccc(NC(=O)C5(C(=O)Nc6ccc(F)cc6)CC5)c(F)c4)ccn3)CC2)CC1 [Golvatinib (E7050)] | 1.22 ± 0.24 |
| C[C@H]1COc2c(N3CCN(C)CC3)c(F)cc3c(=O)c(C(=O)O)cn1c23 [Levofloxacin] | 1.048 ± 0.0098 |
| NC(CO)C(=O)NNCc1ccc(O)c(O)c1O (centres undefined) [Benserazide HCl] | 0.987 ± 0.032 |
| CCCC(=O)OCOC(=O)C1=C(C)NC(C)=C(C(=O)OC)C1c1cccc(Cl)c1Cl (centres undefined) [Clevidipine Butyrate] | 0.966 ± 0.05 |
| CN1CCN(c2ccc(OC(F)(F)F)c(Nc3ncc4c(n3)-c3c(c(C(N)=O)nn3CCO)CC4)c2)CC1 | 0.9685 ± 0.0073 |
| CN(C/C=C/C#CC(C)(C)C)Cc1cccc2ccccc12 [Terbinafine HCl] | 1.1 ± 0.093 |
| CN(C/C=C/C#CC(C)(C)C)Cc1cccc2ccccc12 [Terbinafine] | 1.09 ± 0.026 |
| Nc1nc(O)c2ncn(CCC(CO)CO)c2n1 [Penciclovir] | 1.05 ± 0.13 |
| Fc1ccc([C@@H]2CCNC[C@H]2COc2ccc3c(c2)OCO3)cc1 [Paroxetine HCl] | 0.487 ± 0.45 |
| O=C(/C=C/N1C[C@H]2C[C@@H]1CN2c1ccccn1)c1ccccc1O | 1.13 ± 0.2 |
| O=C(O)CCCC[C@@H]1SC[C@@H]2NC(=O)N[C@@H]21 [Biotin (Vitamin B7)] | 1.06 ± 0.16 |
| CCOC(=O)Nc1ccc(NCc2ccc(F)cc2)nc1N [Flupirtine maleate] | 1.14 ± 0.014 |
| COC(=O)C1=C(C)NC(C)=C(C(=O)OC(C)C)C1c1cccc2nonc12 (centres undefined) [Isradipine] | 1.04 ± 0.072 |
| O=C(NO)c1ccc(CC(=O)N(CCO)c2ccccc2)cc1 | 1.056 ± 0.0057 |
| Cn1c(Nc2ccc(C(F)(F)F)cc2)nc2cc(Oc3ccnc(-c4ncc(C(F)(F)F)[nH]4)c3)ccc21 | 0.847 ± 0.035 |
| C[C@H](CCC(=O)O)[C@H]1CC[C@H]2[C@@H]3CC[C@@H]4C[C@H](O)CC[C@]4(C)[C@H]3CC[C@]12C [Lithocholic acid] | 1.1 ± 0.0019 |
| CC(=O)SCC(Cc1ccccc1)C(=O)NCC(=O)OCc1ccccc1 (centres undefined) [Racecadotril] | 1.07 ± 0.017 |
| OCCN1C[C@H](O)[C@@H](O)[C@H](O)[C@H]1CO [Miglitol] | 1.11 ± 0.077 |
| CC(C)(O)C1CCC(C)(C2C(O)CC3(C)C4CC(OC5OC(CO)C(O)C(O)C5O)C5C(C)(C)C(OC6OCC(O)C(O)C6O)CCC56CC46CCC23C)O1 (centres undefined) [Astragaloside A] | 1.15 ± 0.069 |
| S=C(NCc1ccc2c(c1)OCO2)N1CCN(c2ncnc3c2oc2ccccc23)CC1 [Amuvatinib (MP-470)] | 0.943 ± 0.34 |

| SMILES | relative cell viability |
| --- | --- |
| CC1(C)CCC2=C(O1)c1ccccc1C(=O)C2=O [Beta-Lapachone] | 0.246 ± 0.051 |
| CC(=O)OCC[N+](C)(C)C [Acetylcholine Chloride] | 1.003 ± 0.0059 |
| CN(C)[C@@H]1C(=O)C(C(N)=O)=C(O)[C@@]2(O)C(=O)C3=C(O)c4c(O)ccc(Cl)c4[C@@H](O)[C@H]3C[C@@H]12 [Demeclocycline HCl] | 1.18 ± 0.04 |
| Cn1cnc([N+](=O)[O-])c1Sc1ncnc2[nH]cnc12 [Azathioprine] | 1.08 ± 0.07 |
| CC(=O)Oc1cc2c(s1)CCN(C(C(=O)C1CC1)c1ccccc1F)C2 (centres undefined) [Prasugrel] | 1.33 ± 0.14 |
| CC(C)C(=O)Nc1ccc([N+](=O)[O-])c(C(F)(F)F)c1 [Flutamide] | 1.05 ± 0.082 |
| COc1nc(N)nc2c1ncn2[C@@H]1O[C@H](CO)[C@@H](O)[C@@H]1O [Nelarabine] | 1.21 ± 0.043 |
| CN(C)CCCn1cc(C2=C(c3c[nH]c4ccccc34)C(=O)NC2=O)c2ccccc21 | 1.13 ± 0.18 |
| O=C(Nc1cccc(Nc2ncc(Br)c(NCCc3cnc[nH]3)n2)c1)N1CCCC1 | 1.14 ± 0.11 |
| COc1ccccc1N1CCN(CCCNc2cc(=O)n(C)c(=O)n2C)CC1 [Urapidil HCl] | 1.01 ± 0.037 |
| CCC(=O)OCC(=O)[C@@]1(OC(=O)CC)[C@@H](C)C[C@H]2[C@@H]3CCC4=CC(=O)C=C[C@]4(C)[C@@]3(Cl)[C@@H](O)C[C@@]21C [Beclomethasone dipropionate] | 1 ± 0.083 |
| O=c1c2ccccc2nc2n1CCc1c-2[nH]c2ccccc12 [Rutaecarpine] | 0.989 ± 0.033 |
| O=C(/C=C/C=C/c1ccc2c(c1)OCO2)N1CCCCC1 [Piperine] | 1.11 ± 0.046 |
| O=C(O)C(S)=Cc1c[nH]c2ccc(F)cc12 | 1.3349 ± 0.00087 |
| C[C@H]1Oc2cc(cnc2N)-c2c(nn(C)c2C#N)CN(C)C(=O)c2ccc(F)cc21 | 1.02 ± 0.11 |
| C[C@@]1(c2cc(-c3cncnc3)c(F)cc2F)CCSC(N)=N1 | 0.857 ± 0.14 |
| CCc1cnn2c(NCc3ccc[n+]([O-])c3)cc(N3CCCC[C@H]3CCO)nc12 | 0.842 ± 0.12 |
| O=C1NC(=O)[C@@H](c2cn3c4c(cccc24)CCC3)[C@@H]1c1c[nH]c2ccccc12 [Tivantinib (ARQ 197)] | 0.834 ± 0.012 |
| Cc1cc(C)c(CNC(=O)c2cc(-c3ccc(N4CCN(C)CC4)nc3)cc3c2c(C)cn3C(C)C)c(=O)[nH]1 | 1.22 ± 0.035 |
| CC(C)(C(=O)NCC(F)(F)C(F)(F)F)C(=O)N[C@@H]1C(=O)Nc2ccccc2-c2ccccc21 | 0.895 ± 0.023 |
| O=C1OC(CN2CCOCC2)CN1/N=C/c1ccc([N+](=O)[O-])o1 (centres undefined) [Furaltadone HCl] | 1.47 ± 0.051 |
| Cc1ccc(-c2c(-c3nn(C)c4ncnc(N5CC[C@H](N6CCCCC6)C5)c34)cnn2C)cc1 | 1.04 ± 0.056 |
| O=C1c2c(O)cc(O)cc2O[C@H](c2cc(O)c(O)c(O)c2)[C@H]1O [Dihydromyricetin] | 0.916 ± 0.058 |
| C[C@H]1[C@H](OC(=O)CCC(=O)O)O[C@@H]2O[C@@]3(C)CC[C@H]4[C@H](C)CC[C@@H]1[C@@]24OO3 [Artesunate] | 1.06 ± 0.054 |
